In PubChem BioAssay AID485313 (National Center for Advancing Translational Sciences (NCATS), 2010):
Out of some 320,000 compounds screened, about 7,600 (2.4%) were called active. The shares of active, inactive and inconclusive entries below differ from those in the screen. Calls come from the whole dose curve; as a rule, active = well fitted activation curve with a large enough effect; inconclusive = small, poorly fitted or top-dose-only effect; inactive = no such curve, though single readings can be large or run the other way. Potencies beside an inconclusive call are fits to weak or partial responses and may not hold up.

Assay: qHTS Assay for NPC1 Promoter Activators; note: nearly all actives have a fitted effect of over 60% in size;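 for activation: reporter is driven by a mutant NPC1 promoter; % of control where 0% means no effect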
Settings: Huh7 NPC1 promoter luciferase reporter, 24 h; series mostly up to 9.22 µM; activation: at the top concentration
Procedure, shortened: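 Luciferase expression driven by the NPC1 promoter was measured in stably transfected Huh7 cells after a 24 h compound incubation, using a luciferase reagent and a luminescence read.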
Potency is the fitted concentration of half-maximal effect; tags give direction and shape of the fitted curve.

activation, inactive:
COc1ccccc1N1CCN(CCCNC(=O)Cn2ncc3c([nH]c4ccccc43)c2=O)CC1 -2.63%, O=C(NC1=NCCS1)[C@H](Cc1ccccc1)N1C(=O)c2ccccc2C1=O 1.18%, COc1ccc(C2CC(=O)c3sc(NC(C)=O)nc3C2)cc1 (stereo not given) 26.2%, CN1CCN(CCNC(=O)Cn2c(=O)c3cccn3c3ccc(F)cc32)CC1 -2.72%, CC1(C2CC(C(F)(F)F)n3nc(C(=O)O)cc3N2)CC1 (stereo not given) -0.505%, COc1ccc(-c2nc(-c3ccccc3)c(-c3cc([N+](=O)[O-])ccc3C)[nH]2)cc1OC -3.72%, CCN1C(=O)[C@H]2[C@@H](c3ccc(SC4CCCCC4)cc3)N[C@@](CC(C)C)(C(=O)OC)[C@H]2C1=O -1.14%, Cc1ccc(S(=O)(=O)Nc2ccc3c(c2)OCCO3)cc1C -2.99%, CC1CCC(NC(=O)c2ccc(NC(=O)c3ccc(=O)[nH]c3)cc2)CC1 (stereo not given) 13%, O=C(Nc1cccc(C(=O)O)c1)/C(=C\c1ccccc1)NC(=O)c1cccc2ccccc12 -4.37%, CC1CCN(C(=O)c2ccc(NS(=O)(=O)c3ccccc3)cc2)CC1 1.82%, CCCCNC(=O)/C=C1\Sc2ccccc2NC1=O -0.95%, COc1ccccc1NCC(=O)N/N=C/C=C/c1ccccc1 -0.182%, COc1ccc(OC)c(N=c2oc3cc(O)ccc3cc2C(N)=O)c1 -0.988%, Cc1ccc2nc(CSc3nnc(Nc4ccccc4C)s3)cc(=O)n2c1 1.29%, COc1ccc(C(=O)Sc2ccc(Cl)cc2)cc1OC -13.8%, CCN(CC(=O)Nc1ccc(NC(C)=O)cc1)C(=O)c1ccc(N2CCC(C)CC2)c([N+](=O)[O-])c1 -1.04%, CC(NC(=O)COC(=O)c1cc2ccccc2cc1O)c1ccccc1 (stereo not given) 9.82%

Potency, active:
Cc1nc2cc(NC(=O)c3ccc(Br)s3)ccc2s1 0.398 µM, O=C(c1cc(-c2ccc(Cl)c(Cl)c2)on1)N1CCOCC1 1.41 µM, CC1CCCN(C(=O)CSc2nc3ccccc3o2)C1 (stereo not given) 2.51 µM, Cc1ccc(C(=O)Nc2sc3c(c2C(=O)O)CCCCC3)o1 3.55 µM, CC(=O)NCCc1nc2cc(NC(=O)c3ccc(Cl)cc3)ccc2n1C 0.708 µM, CC(=O)NC12CC3CC(C1)CC(C(=O)OCC(=O)c1ccc4c(c1)OCCO4)(C3)C2 0.501 µM

Potency, inconclusive:
O=C(Nc1cccc(O)c1)c1noc2c1CCCCC2 3.55 µM [activator, single point], Cc1ccc(NC(=O)c2sc3nc(N)c(C#N)cc3c2N)cc1 5.62 µM [activator, single point], COC(=O)c1sc(Nc2ccccc2)nc1C 3.55 µM [activator, single point], COc1cc2ccccc2cc1C(=O)Nc1cc(C)ccn1 4.47 µM [activator, single point], c1cncc(-c2nc3cc4ccccc4cc3[nH]2)c1 5.62 µM [activator, single point], CCCCC(=O)Nc1nc2c(s1)COc1ccccc1-2 3.16 µM [activator, partial curve], CCCCC(=O)Nc1cnc(NC(=O)c2ccco2)cc1C 3.16 µM [activator, partial curve], O=C(Nc1nnc(Cc2ccccc2)s1)c1ccco1 2.51 µM [activator, partial curve], Clc1cnc2nc(SC/C=C/c3ccccc3)[nH]c2c1 3.55 µM [activator, single point], Cc1cc(C(=O)Cn2cnc3ccccc3c2=O)c(C)n1C1CC1 2.82 µM [activator, partial curve], Fc1ccc(-n2nnc(-c3cnc4ccccc4c3)n2)cc1 0.1 µM [activator, full curve], CC(=O)c1cnc(-c2cccc(Cl)c2)s1 3.55 µM [activator, partial curve], Cc1nc2c(-c3ccc(Cl)cc3)cnn2c2c1CCC2 6.31 µM [activator, single point], O=C(CC1CCCCC1)NCc1ccc(Cl)cc1 3.55 µM [activator, partial curve], O=C(N/N=C(\c1ccccc1)c1ccccn1)c1ccccc1Cl 1.26 µM [activator, single point], CC(=O)c1sc(NC(=O)c2ccc(Br)o2)nc1C 3.55 µM [activator, partial curve], O=C(c1ccc(-c2ccc([N+](=O)[O-])cc2)o1)N1CCCCCCC1 3.98 µM [activator, partial curve], Cc1ccc(-c2nc3ccccn3c2C=O)cc1 3.98 µM [activator, partial curve], O=C(Nc1ccccc1C(F)(F)F)c1cc(-c2cccc(O)c2)on1 5.62 µM [activator, single point], COc1ccc(-c2csc(Nc3cc(C)ccn3)n2)cc1OC 2.51 µM [activator, partial curve], C[C@H](NC(N)=O)C(=O)Nc1ccc(OCc2ccccc2)cc1 2.82 µM [activator, partial curve], COc1cc2c(cc1NC(=O)C(C)OC(=O)C1CC(=O)N(Cc3ccco3)C1)oc1ccccc12 (stereo not given) 4.47 µM [activator, single point], COc1cccc([C@@H]2Oc3ccc(OC)cc3C(=O)[C@H]2O)c1 5.01 µM [activator, single point], CN(C)c1ccc(NC(=O)c2cccc(N3C(=O)CCC3=O)c2)cc1 5.62 µM [activator, single point], CCOC(=O)c1ccc(-c2ccc(/C=N/NC(=O)CN(c3ccccc3Cl)S(C)(=O)=O)o2)cc1 3.16 µM [activator, partial curve], CC(C)(C)C(=O)Nc1cccc(-c2nc3ccccc3c(=O)o2)c1 3.16 µM [activator, partial curve]
